{"source": "the supplement of paper PMC6135742", "note": "Structures can show the parent of a compound that is named as a salt. In all, about 2,600 compounds were measured (“MBP+ mature oligodendrocyte number relative to DMSO vehicle control”: median about -0.34, highest 2% from about 13 on). The list shows a part of the results.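 Further: 10 µM single dose with 3-day oligodendrocyte differentiation.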"}
{"system": "jimpy (Plp1 jimpy) mouse iPSC-derived oligodendrocyte progenitor cells", "assay": "MBP+ mature oligodendrocyte number relative to DMSO vehicle control (SDs above negative control mean); higher = more surviving jimpy oligodendrocytes (rescue)", "details": "10 µM; 3 days"}
{"compound": "COc1cc(OC)c(/C=C/S(=O)(=O)Cc2ccc(OC)c(NCC(=O)O)c2)c(OC)c1", "MBP+ mature oligodendrocyte number": -3.12}
{"compound": "CN(C)[C@@H]1C(O)=C(C(N)=O)C(=O)[C@@]2(O)C(O)=C3C(=O)c4c(O)cccc4[C@@](C)(O)[C@H]3[C@H](O)[C@@H]12", "note": "[Oxytetracycline (Terramycin)]", "MBP+ mature oligodendrocyte number": 2.59}
{"compound": "OC(CN1CCN(c2cccc(Cl)c2)CC1)C(c1ccccc1)c1ccccc1", "note": "(stereo not drawn)", "MBP+ mature oligodendrocyte number": -1.32}
{"compound": "CC(Cc1ccc(O)c(O)c1)(NN)C(=O)O", "note": "(stereo not drawn) [S-(-)-Carbidopa]", "MBP+ mature oligodendrocyte number": -1.01}
{"compound": "CCCCCCCCCC(=O)NC(CN1CCOCC1)[C@H](O)c1ccccc1", "note": "(mixture of isomers)", "MBP+ mature oligodendrocyte number": -0.0684}
{"compound": "CN(C)c1ccc(O)c2c1C[C@H]1C[C@H]3[C@H](N(C)C)C(O)=C(C(N)=O)C(=O)[C@@]3(O)C(O)=C1C2=O", "note": "[Minocycline hydrochloride]", "MBP+ mature oligodendrocyte number": -0.637}
{"compound": "CCN1CCc2nc(N)oc2CC1", "note": "[B-HT 933 dihydrochloride]", "MBP+ mature oligodendrocyte number": -0.0401}
{"compound": "COc1cc(C(C)=O)ccc1O", "note": "[Apocynin]", "MBP+ mature oligodendrocyte number": 0.843}
{"compound": "C[N+](C)(C)CCOC(=O)CCC(=O)OCC[N+](C)(C)C", "note": "[Succinylcholine chloride]", "MBP+ mature oligodendrocyte number": -0.925}
{"compound": "C[N+](C)(C)CCOC(=O)CCC(=O)OCC[N+](C)(C)C", "note": "[Succinylcholine Chloride Dihydrate]", "MBP+ mature oligodendrocyte number": 0.491}
{"compound": "Nc1cc(F)ccc1NC(=O)/C=C/c1cnn(C/C=C/c2ccccc2)c1", "MBP+ mature oligodendrocyte number": "< -6.35"}
{"compound": "CC(C)C[C@H](C(=O)O)c1cc(-c2ccc(C(F)(F)F)cc2)cc(-c2ccc(C(F)(F)F)cc2)c1", "MBP+ mature oligodendrocyte number": 25.5}
{"compound": "CCOc1ccc2nc3cc(N)ccc3c(N)c2c1", "note": "[Ethacridine lactate monohydrate]", "MBP+ mature oligodendrocyte number": "< -6.35"}
{"compound": "CN(Cc1cnc2nc(N)nc(N)c2n1)c1ccc(C(=O)N[C@@H](CCC(=O)O)C(=O)O)cc1", "note": "[Methotrexate]", "MBP+ mature oligodendrocyte number": -2.16}
{"compound": "CN1CCN(c2c(F)cc3c(=O)c(C(=O)O)cn4c3c2OCN4C)CC1", "note": "[Marbofloxacin]", "MBP+ mature oligodendrocyte number": 0.458}
{"compound": "C[C@H]1[C@H](C)CC[C@]2(C(=O)O)CC[C@]3(C)C(=CC[C@@H]4[C@@]5(C)C[C@@H](O)[C@H](O)[C@@](C)(CO)[C@@H]5CC[C@]43C)[C@H]12", "note": "[Asiatic Acid]", "MBP+ mature oligodendrocyte number": -0.108}
{"compound": "CCOC(=O)c1ccc(N)cc1", "note": "[Benzocaine]", "MBP+ mature oligodendrocyte number": 1.08}
{"compound": "CCCCCCCCCCCCc1ccc(S(=O)(=O)Nc2nncs2)cc1", "MBP+ mature oligodendrocyte number": 0.973}
{"compound": "COc1ccc(CCNc2nc(N3CCc4cc(OC)c(OC)cc4C3)c3cc(OC)c(OC)cc3n2)cc1OC", "MBP+ mature oligodendrocyte number": "< -3.34"}
{"compound": "CCN(CC)CCOC(=O)C(c1ccccc1)c1ccccc1", "note": "[Adiphenine HCl]", "MBP+ mature oligodendrocyte number": 0.0731}
{"compound": "C=CCn1c(=O)c2c(nc(-c3ccc(S(=O)(=O)O)cc3)n2C)n(C)c1=O", "note": "[1-Allyl-3,7-dimethyl-8-p-sulfophenylxanthine]", "MBP+ mature oligodendrocyte number": 0.0385}
{"compound": "Cc1ccc(S(=O)(=O)NC(=O)NN2CCCCCC2)cc1", "note": "[Tolazamide]", "MBP+ mature oligodendrocyte number": -0.0327}
{"compound": "CCCN(CCc1ccccc1)C1CCc2c(O)cccc2C1", "note": "(racemic) [(±)-PPHT hydrochloride]", "MBP+ mature oligodendrocyte number": -2.28}
{"compound": "CCCCCCCCCCCC[N+](C)(C)CCOc1ccccc1", "note": "[Domiphen Bromide]", "MBP+ mature oligodendrocyte number": "< -6.35"}
{"compound": "COCCc1ccc(OCC(O)CNC(C)C)cc1", "note": "(racemic) [(±)-Metoprolol (+)-tartrate]", "MBP+ mature oligodendrocyte number": -1.81}
{"compound": "NC(=O)c1cccc(N)c1", "note": "[3-aminobenzamide]", "MBP+ mature oligodendrocyte number": 3.57}
{"compound": "Cc1ccc(-n2nc(C(C)(C)C)cc2NC(=O)Nc2ccc(OCCN3CCOCC3)c3ccccc23)cc1", "note": "[BIRB 796 (Doramapimod)]", "MBP+ mature oligodendrocyte number": 6.73}
{"compound": "Cc1cc(OCc2nnc(SC3CCCC3)n2-c2cccnc2)ccc1-c1ccc(S(C)(=O)=O)cc1", "MBP+ mature oligodendrocyte number": "< -6.35"}
{"compound": "CNC(=O)c1ccc(C)c(-n2c(C)cc(OCc3ccc(F)cc3F)c(Br)c2=O)c1", "MBP+ mature oligodendrocyte number": 1.45}
{"compound": "CNC(=N)NCCC[C@H](N)C(=O)O", "note": "[NG-Monomethyl-L-arginine acetate]", "MBP+ mature oligodendrocyte number": -1.38}
{"compound": "c1ccc(CN(CC2=NCCN2)c2ccccc2)cc1", "note": "[Antazoline HCl]", "MBP+ mature oligodendrocyte number": 0.238}
{"compound": "Nc1ncnc2n[nH]c(Nc3ccc(F)cc3)c12", "MBP+ mature oligodendrocyte number": -3.14}
{"compound": "CC[C@H](C)C[C@H](C)CCCCCCCCC(=O)N[C@H]1C[C@@H](O)[C@@H](NCCN)NC(=O)[C@@H]2[C@@H](O)CCN2C(=O)[C@H]([C@H](O)CCN)NC(=O)[C@H]([C@H](O)[C@@H](O)c2ccc(O)cc2)NC(=O)[C@@H]2C[C@@H](O)CN2C(=O)[C@H]([C@@H](C)O)NC1=O", "note": "[Caspofungin Acetate]", "MBP+ mature oligodendrocyte number": -3.07}
{"compound": "CN(C)Cc1ccc(S(=O)(=O)n2ccc(/C=C/C(=O)NO)c2)cc1", "note": "[Resminostat]", "MBP+ mature oligodendrocyte number": "< -6.01"}
{"compound": "CNC(=O)CN(CCN(CCN(CC(=O)[O-])CC(=O)NC)CC(=O)[O-])CC(=O)[O-].[Gd+3]", "note": "[Gadodiamide]", "MBP+ mature oligodendrocyte number": "< -5.15"}
{"compound": "CN(C)CC/C=C1/c2ccccc2COc2ccc(CC(=O)O)cc21", "note": "[Olopatadine HCl]", "MBP+ mature oligodendrocyte number": 0.955}
{"compound": "Clc1ccc(N2CCN(Cc3cc4ccccn4n3)CC2)cc1", "MBP+ mature oligodendrocyte number": 0.61}
{"compound": "O=C(O)C1=CCCN(CCON=C(c2ccccc2)c2ccccc2)C1", "note": "[NO-711 hydrochloride]", "MBP+ mature oligodendrocyte number": -1.38}
